Measured values from PMC4336329 (PLoS ONE, 2015).
The campaign covered roughly 310,000 compounds. About 14,000 (4.5%) showed an effect of 50% or more. Effects have a minus sign here. Some of the results follow.

What follows are compounds tested against human ether-à-go-go-related gene (hERG) potassium channel (human, UniProt Q12809) (assay: primary screen, population patch clamp on CHO cells stably expressing hERG).
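Also: peak tail current of the secondary pulse compared with the same well before compound.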

Chain of human ether-à-go-go-related gene (hERG) potassium channel (Q12809 whole entry, looked up): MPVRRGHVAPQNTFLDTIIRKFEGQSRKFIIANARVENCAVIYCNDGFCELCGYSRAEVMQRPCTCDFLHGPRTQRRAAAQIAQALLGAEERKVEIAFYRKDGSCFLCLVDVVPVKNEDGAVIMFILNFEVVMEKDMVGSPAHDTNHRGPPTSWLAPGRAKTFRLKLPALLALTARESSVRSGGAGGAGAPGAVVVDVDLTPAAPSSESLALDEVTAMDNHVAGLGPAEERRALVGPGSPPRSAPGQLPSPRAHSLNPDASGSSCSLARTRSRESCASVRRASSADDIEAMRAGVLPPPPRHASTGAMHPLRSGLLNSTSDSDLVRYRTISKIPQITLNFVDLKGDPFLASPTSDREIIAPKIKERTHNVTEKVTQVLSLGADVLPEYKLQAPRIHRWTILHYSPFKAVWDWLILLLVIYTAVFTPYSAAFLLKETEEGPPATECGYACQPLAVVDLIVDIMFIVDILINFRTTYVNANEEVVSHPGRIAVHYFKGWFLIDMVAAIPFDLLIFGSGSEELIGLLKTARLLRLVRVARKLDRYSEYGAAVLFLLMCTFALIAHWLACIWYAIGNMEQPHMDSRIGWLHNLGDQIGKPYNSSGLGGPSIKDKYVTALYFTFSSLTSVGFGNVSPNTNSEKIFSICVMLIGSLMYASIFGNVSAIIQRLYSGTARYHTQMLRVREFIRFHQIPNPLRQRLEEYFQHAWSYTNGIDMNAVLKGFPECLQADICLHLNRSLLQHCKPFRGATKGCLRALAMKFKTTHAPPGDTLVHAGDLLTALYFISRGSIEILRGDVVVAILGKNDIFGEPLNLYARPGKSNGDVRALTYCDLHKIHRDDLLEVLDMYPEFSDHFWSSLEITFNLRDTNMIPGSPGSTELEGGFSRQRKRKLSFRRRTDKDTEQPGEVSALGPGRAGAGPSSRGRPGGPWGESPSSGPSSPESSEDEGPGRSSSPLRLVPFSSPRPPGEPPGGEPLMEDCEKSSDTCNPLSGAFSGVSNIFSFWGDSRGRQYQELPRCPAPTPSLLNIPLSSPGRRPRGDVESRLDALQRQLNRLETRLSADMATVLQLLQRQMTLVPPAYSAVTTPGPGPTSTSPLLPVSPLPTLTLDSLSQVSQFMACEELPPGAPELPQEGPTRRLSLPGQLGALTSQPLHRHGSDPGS

Compound	hERG current change (%, negative = inhibition) at 10uM
Cc1cc(C)cc(NC(=S)N2CCC(NC(=O)C3CC3)CC2)c1	0.346%
COc1cc(=O)[nH]c(SC(C)C(=O)Nc2ccc3ccccc3c2)n1 (stereo not drawn)	18.7%
Cc1ccc(C(=O)Nc2ccc3c(c2)CCC3)cc1	14.7%
CCc1cc(=O)oc2cc(C)cc(OCC(=O)NCc3cccnc3)c12	-31.5%
COc1cccc(/C=C(/C(=O)OCC(=O)NC2CCCC(C)C2C)c2ccccc2)c1 (stereo not drawn)	25.9%
CCc1nc(NCC2CCCO2)c2oc3ccccc3c2n1.Cl (stereo not drawn)	-19%
COc1cccc(NC(=O)CN(C)C(=O)COc2ccc3ccccc3c2)c1	6.94%
COc1ccc(S(=O)(=O)N2CCCCCC2)cc1C(=O)NC1(C)CCS(=O)(=O)C1 (stereo not drawn)	-42.4%
Cc1ccc(S(=O)(=O)N2CCC(C(=O)N3Cc4ccccc4C3)CC2)cc1	-21.6%
CC(NC(=O)Cc1cccc2ccccc12)C(=O)N1CCC(=O)CC1 (stereo not drawn)	22%
COc1ccc(NC(=O)Cc2cccc(F)c2)cc1S(=O)(=O)Nc1ccccc1Cl	-3.55%
CCOC(=O)c1cc2c(ccn2-c2ccc(F)cc2)n1CC(=O)NC(C)(C)C	15.2%
CSC1=NC2(CCCCC2)C2=C(CCCC2)N1	-19.4%
CCOC(=O)COc1ccccc1/C=N/O	0.661%
Cc1onc(-c2ccccc2)c1C(=O)N/N=C/c1ccc(O)c([N+](=O)[O-])c1	9.34%
COc1cccc(/C=C/C(=O)Nc2ccc3nc4n(c(=O)c3c2)CCCC4)c1OC	12.8%
CC(C)(CNC(=O)c1cccc(S(=O)(=O)NCc2ccccc2)c1)N1CCOCC1	-21.6%
COc1ccc(-c2nnc(SCc3csc(N)n3)n2C)cc1	-11.9%
C=CCc1c(C)c(C#N)c2nc3ccccc3n2c1NCCN(C)C	-15.8%
CC(=O)O[C@H]1CC[C@@]2(C)[C@H](C1)C(=O)C[C@H]1[C@@H]3CC[C@@H]4[C@@H](CN5C[C@@H](C)CC[C@H]5[C@@]4(C)O)[C@@H]3C[C@@H]12	-3.95%
Clc1cccc(CSc2ccc(-c3cccnc3)nn2)c1	-67.3%
O=C(C1COc2ccccc2O1)N1CCc2ccccc2C1 (stereo not drawn)	-3.37%
Cc1nc2ccccc2n2c(-c3ccccc3)c3c(=O)n(C)c(=O)n(C)c3c12	-7.8%
COc1ccc(S(=O)(=O)N2CCC(O)(c3ccc4c(c3)OCO4)CC2)cc1	-11.2%
